According to US20260166128A1, “HUMAN AMYLIN ANALOG, AND DERIVATIVE THEREOF AND USE THEREOF” (priority 2022, published 2026):
At least one peptide structure holds a part that was inferred or is arguable (an end, a ring closure or a residue). Numbered stars: 1 amine (or outer) side, 2 acyl side, 3 side chain; on linkers, the order of the positions; unused ones are H or OH. Bridge positions count the residues as written; N and C are the ends. Side chains are listed from the residue outwards. Peptide text beside a SMILES is read from it. * marks the point of attachment. C20 diacid = O=C(O)CCCCCCCCCCCCCCCCCCC(=O)*; γGlu = O=C(O)[C@H](CCC(=O)[*:2])N[*:1]

Assay: Freeze-thaw stability of derivatives (freeze-thaw yield by liquid chromatography)
Assay type: physicochemical
Conditions: for Dissolution property: appearance after dissolution at 0.2 mg/ml in 20 mM phosphate buffer solution (PB) (pH 7.0); for Freeze storage property: appearance after overnight storage at −20° C. and thawing to room temperature, 0.2 mg/ml in 20 mM PB (pH 7.0); for Freeze storage yield: concentration of polypeptide after freezing and thawing / concentration before, by liquid chromatography, −20° C. overnight
Procedure, shortened: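 Freeze-thaw yield is the ratio of peptide concentration after versus before one overnight −20° C freeze and room-temperature thaw, both quantified by RP-HPLC of supernatant after centrifugation. Samples were 0.2 mg/ml freeze-dried derivative in 20 mM PB, pH 7.0.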

Row | SMILES | Dissolution property | Freeze storage property | Freeze storage yield [%]
1 | CC[C@H](C)[C@H](NC(=O)[C@H](C)NC(=O)[C@H](CCCCNC(=O)CC[C@H](NC(=O)CCCCCCCCCCCCCCCCCCC(=O)O)C(=O)O)NC(=O)[C@H](CC(C)C)NC(=O)[C@H](CC(N)=O)NC(=O)[C@H](CC(N)=O)NC(=O)[C@H](CO)NC(=O)[C@H](CO)NC(=O)[C@H](Cc1c[nH]cn1)NC(=O)[C@H](CCCNC(=N)N)NC(=O)[C@H](CC(C)C)NC(=O)[C@H](Cc1ccccc1)NC(=O)[C@H](CCC(=O)O)NC(=O)[C@H](C)NC(=O)[C@H](CC(C)C)NC(=O)[C@H](CCCNC(=N)N)NC(=O)[C@H](CCC(N)=O)NC(=O)[C@@H](NC(=O)[C@H](C)NC(=O)[C@@H]1CSSC[C@H](NC(=O)[C@@H](N)CCCNC(=N)N)C(=O)N[C@@H](CC(N)=O)C(=O)N[C@@H]([C@@H](C)O)C(=O)N[C@@H](C)C(=O)N[C@@H]([C@@H](C)O)C(=O)N1)[C@@H](C)O)C(=O)N[C@@H](CC(C)C)C(=O)N1CCC[C@H]1C(=O)N[C@@H](CO)C(=O)N[C@H](C(=O)N[C@@H](CC(N)=O)C(=O)N[C@H](C(=O)NCC(=O)N[C@@H](CO)C(=O)NCC(=O)N[C@H](C(=O)N1CCC[C@H]1C(N)=O)[C@@H](C)O)C(C)C)[C@@H](C)O [PD028] (H-RCNTATCATQRLAEFLRHSSNNLK([γGlu-C20 diacid])AILPSTNVGSGTP-NH2; disulfide 2-7) | Muddy | Muddy | 0.00
2 | CC[C@H](C)[C@H](NC(=O)[C@H](C)NC(=O)[C@H](CCCCNC(=O)CC[C@H](NC(=O)CCCCCCCCCCCCCCCCCCC(=O)O)C(=O)O)NC(=O)[C@H](CC(C)C)NC(=O)[C@H](CC(N)=O)NC(=O)[C@H](CC(N)=O)NC(=O)[C@H](CO)NC(=O)[C@H](CO)NC(=O)[C@H](Cc1c[nH]cn1)NC(=O)[C@H](CCCNC(=N)N)NC(=O)[C@H](CC(C)C)NC(=O)[C@H](Cc1ccccc1)NC(=O)[C@H](CCC(=O)O)NC(=O)[C@H](C)NC(=O)[C@H](CC(C)C)NC(=O)[C@H](CCCNC(=N)N)NC(=O)[C@H](CCC(N)=O)NC(=O)[C@@H](NC(=O)[C@H](C)NC(=O)[C@@H]1CSSC[C@H](NC(=O)[C@@H](N)CCCNC(=N)N)C(=O)N[C@@H](CC(N)=O)C(=O)N[C@@H]([C@@H](C)O)C(=O)N[C@@H](C)C(=O)N[C@@H]([C@@H](C)O)C(=O)N1)[C@@H](C)O)C(=O)N[C@@H](CC(C)C)C(=O)N[C@@H](CO)C(=O)N1CCC[C@H]1C(=O)N[C@H](C(=O)N[C@@H](CC(N)=O)C(=O)N[C@H](C(=O)NCC(=O)N[C@@H](CO)C(=O)NCC(=O)N[C@H](C(=O)N1CCC[C@H]1C(N)=O)[C@@H](C)O)C(C)C)[C@@H](C)O [PD029] (H-RCNTATCATQRLAEFLRHSSNNLK([γGlu-C20 diacid])AILSPTNVGSGTP-NH2; disulfide 2-7) | Muddy | Muddy | 27.17
3 | CC[C@H](C)[C@H](NC(=O)[C@@H]1CCCN1C(=O)[C@H](CCCCNC(=O)CC[C@H](NC(=O)CCCCCCCCCCCCCCCCCCC(=O)O)C(=O)O)NC(=O)[C@H](CC(C)C)NC(=O)[C@H](CC(N)=O)NC(=O)[C@H](CC(N)=O)NC(=O)[C@H](CO)NC(=O)[C@H](CO)NC(=O)[C@H](Cc1c[nH]cn1)NC(=O)[C@H](CCCNC(=N)N)NC(=O)[C@H](CC(C)C)NC(=O)[C@H](Cc1ccccc1)NC(=O)[C@H](CCC(=O)O)NC(=O)[C@H](C)NC(=O)[C@H](CC(C)C)NC(=O)[C@H](CCCNC(=N)N)NC(=O)[C@H](CCC(N)=O)NC(=O)[C@@H](NC(=O)[C@H](C)NC(=O)[C@@H]1CSSC[C@H](NC(=O)[C@@H](N)CCCNC(=N)N)C(=O)N[C@@H](CC(N)=O)C(=O)N[C@@H]([C@@H](C)O)C(=O)N[C@@H](C)C(=O)N[C@@H]([C@@H](C)O)C(=O)N1)[C@@H](C)O)C(=O)N[C@@H](CC(C)C)C(=O)N1CCC[C@H]1C(=O)N[C@@H](CO)C(=O)N[C@H](C(=O)N[C@@H](CC(N)=O)C(=O)N[C@H](C(=O)NCC(=O)N[C@@H](CO)C(=O)NCC(=O)N[C@H](C(=O)N1CCC[C@H]1C(N)=O)[C@@H](C)O)C(C)C)[C@@H](C)O [PD030] (H-RCNTATCATQRLAEFLRHSSNNLK([γGlu-C20 diacid])PILPSTNVGSGTP-NH2; disulfide 2-7) | Clear | Clear | 94.86
4 | CC[C@H](C)[C@H](NC(=O)[C@@H]1CCCN1C(=O)[C@H](CCCCNC(=O)CC[C@H](NC(=O)CCCCCCCCCCCCCCCCCCC(=O)O)C(=O)O)NC(=O)[C@H](CC(C)C)NC(=O)[C@H](CC(N)=O)NC(=O)[C@H](CC(N)=O)NC(=O)[C@H](CO)NC(=O)[C@H](CO)NC(=O)[C@H](Cc1c[nH]cn1)NC(=O)[C@H](CCCNC(=N)N)NC(=O)[C@H](CC(C)C)NC(=O)[C@H](Cc1ccccc1)NC(=O)[C@H](CCC(=O)O)NC(=O)[C@H](C)NC(=O)[C@H](CC(C)C)NC(=O)[C@H](CCCNC(=N)N)NC(=O)[C@H](CCC(N)=O)NC(=O)[C@@H](NC(=O)[C@H](C)NC(=O)[C@@H]1CSSC[C@H](NC(=O)[C@@H](N)CCCNC(=N)N)C(=O)N[C@@H](CC(N)=O)C(=O)N[C@@H]([C@@H](C)O)C(=O)N[C@@H](C)C(=O)N[C@@H]([C@@H](C)O)C(=O)N1)[C@@H](C)O)C(=O)N[C@@H](CC(C)C)C(=O)N[C@@H](CO)C(=O)N1CCC[C@H]1C(=O)N[C@H](C(=O)N[C@@H](CC(N)=O)C(=O)N[C@H](C(=O)NCC(=O)N[C@@H](CO)C(=O)NCC(=O)N[C@H](C(=O)N1CCC[C@H]1C(N)=O)[C@@H](C)O)C(C)C)[C@@H](C)O [PD031] (H-RCNTATCATQRLAEFLRHSSNNLK([γGlu-C20 diacid])PILSPTNVGSGTP-NH2; disulfide 2-7) | Muddy | Muddy | 81.43
5 | CC[C@H](C)[C@H](NC(=O)[C@H](C)NC(=O)[C@H](CCCCNC(=O)CC[C@H](NC(=O)CCCCCCCCCCCCCCCCCCC(=O)O)C(=O)O)NC(=O)[C@H](CC(C)C)NC(=O)[C@H](CC(N)=O)NC(=O)[C@H](CC(N)=O)NC(=O)[C@H](CO)NC(=O)[C@H](CO)NC(=O)[C@H](Cc1c[nH]cn1)NC(=O)[C@H](CCCNC(=N)N)NC(=O)[C@H](CC(C)C)NC(=O)[C@H](Cc1ccccc1)NC(=O)[C@H](CCC(=O)O)NC(=O)[C@H](C)NC(=O)[C@H](CC(C)C)NC(=O)[C@H](CCCNC(=N)N)NC(=O)[C@H](CCC(N)=O)NC(=O)[C@@H](NC(=O)[C@H](C)NC(=O)[C@@H]1CSSC[C@H](NC(=O)[C@@H](N)CCCNC(=N)N)C(=O)N[C@@H](CC(N)=O)C(=O)N[C@@H]([C@@H](C)O)C(=O)N[C@@H](C)C(=O)N[C@@H]([C@@H](C)O)C(=O)N1)[C@@H](C)O)C(=O)N[C@@H](CC(C)C)C(=O)N1CCC[C@H]1C(=O)N1CCC[C@H]1C(=O)N[C@H](C(=O)N[C@@H](CC(N)=O)C(=O)N[C@H](C(=O)NCC(=O)N[C@@H](CO)C(=O)NCC(=O)N[C@H](C(=O)N1CCC[C@H]1C(N)=O)[C@@H](C)O)C(C)C)[C@@H](C)O [PD032] (H-RCNTATCATQRLAEFLRHSSNNLK([γGlu-C20 diacid])AILPPTNVGSGTP-NH2; disulfide 2-7) | Clear | Clear | 103.57
6 | CC[C@H](C)[C@H](NC(=O)[C@@H]1CCCN1C(=O)[C@H](CCCCNC(=O)CC[C@H](NC(=O)CCCCCCCCCCCCCCCCCCC(=O)O)C(=O)O)NC(=O)[C@H](CC(C)C)NC(=O)[C@H](CC(N)=O)NC(=O)[C@H](CC(N)=O)NC(=O)[C@H](CO)NC(=O)[C@H](CO)NC(=O)[C@H](Cc1c[nH]cn1)NC(=O)[C@H](CCCNC(=N)N)NC(=O)[C@H](CC(C)C)NC(=O)[C@H](Cc1ccccc1)NC(=O)[C@H](CCC(=O)O)NC(=O)[C@H](C)NC(=O)[C@H](CC(C)C)NC(=O)[C@H](CCCNC(=N)N)NC(=O)[C@H](CCC(N)=O)NC(=O)[C@@H](NC(=O)[C@H](C)NC(=O)[C@@H]1CSSC[C@H](NC(=O)[C@@H](N)CCCCN)C(=O)N[C@@H](CC(N)=O)C(=O)N[C@@H]([C@@H](C)O)C(=O)N[C@@H](C)C(=O)N[C@@H]([C@@H](C)O)C(=O)N1)[C@@H](C)O)C(=O)N[C@@H](CC(C)C)C(=O)N1CCC[C@H]1C(=O)N1CCC[C@H]1C(=O)N[C@H](C(=O)N[C@@H](CC(N)=O)C(=O)N[C@H](C(=O)NCC(=O)N[C@@H](CO)C(=O)N[C@@H](CC(N)=O)C(=O)N[C@H](C(=O)N1CCC[C@H]1C(N)=O)[C@@H](C)O)C(C)C)[C@@H](C)O [PD033] (H-KCNTATCATQRLAEFLRHSSNNLK([γGlu-C20 diacid])PILPPTNVGSNTP-NH2; disulfide 2-7) | Clear | Clear | 69.52
7 | CC[C@H](C)[C@H](NC(=O)[C@@H]1CCCN1C(=O)[C@H](CCCCNC(=O)CC[C@H](NC(=O)CCCCCCCCCCCCCCCCCCC(=O)O)C(=O)O)NC(=O)[C@H](CC(C)C)NC(=O)[C@H](CC(N)=O)NC(=O)[C@H](CC(N)=O)NC(=O)[C@H](CO)NC(=O)[C@H](CO)NC(=O)[C@H](Cc1c[nH]cn1)NC(=O)[C@H](CCCNC(=N)N)NC(=O)[C@H](CC(C)C)NC(=O)[C@H](Cc1ccccc1)NC(=O)[C@H](CCC(=O)O)NC(=O)[C@H](C)NC(=O)[C@H](CC(C)C)NC(=O)[C@H](CCCNC(=N)N)NC(=O)[C@H](CCC(N)=O)NC(=O)[C@@H](NC(=O)[C@H](C)NC(=O)[C@@H]1CSSC[C@H](NC(=O)[C@@H](N)CCCCN)C(=O)N[C@@H](CC(N)=O)C(=O)N[C@@H]([C@@H](C)O)C(=O)N[C@@H](C)C(=O)N[C@@H]([C@@H](C)O)C(=O)N1)[C@@H](C)O)C(=O)N[C@@H](CC(C)C)C(=O)N[C@@H](CO)C(=O)N[C@@H](CO)C(=O)N[C@H](C(=O)N[C@@H](CC(N)=O)C(=O)N[C@H](C(=O)NCC(=O)N[C@@H](CO)C(=O)N[C@@H](CC(N)=O)C(=O)N[C@H](C(=O)N1CCC[C@H]1C(N)=O)[C@@H](C)O)C(C)C)[C@@H](C)O [PD034] (H-KCNTATCATQRLAEFLRHSSNNLK([γGlu-C20 diacid])PILSSTNVGSNTP-NH2; disulfide 2-7) | Clear | Muddy | 89.35
